PubChem BioAssay AID1347165 (National Center for Advancing Translational Sciences (NCATS), 2019)
Among all 220,000 compounds or so, about 5,700 (2.6%) were called active. Inconclusive results, whose numbers are uncertain, are shown with a selection of clear calls. Calls come from the whole dose curve; as a rule, active = well fitted inhibition curve with a large enough effect; inconclusive = small, poorly fitted or top-dose-only effect; inactive = no such curve, though single readings can be large or run the other way. Potencies beside an inconclusive call are fits to weak or partial responses and may not hold up.

These compounds were tested against Lysine-specific demethylase 5B (Homo sapiens) (UniProt Q9UGL1) (assay: Primary screen for KDM5B Histone Demethylases FDH-coupled qHTS). Settings: FDH-coupled NADH fluorescence (FDH is formaldehyde dehydrogenase); activity change, negative = inhibition: at 57.7 µM (top of the series) unless noted.
UniProt Q9UGL1, sequence (Q9UGL1 whole entry, looked up): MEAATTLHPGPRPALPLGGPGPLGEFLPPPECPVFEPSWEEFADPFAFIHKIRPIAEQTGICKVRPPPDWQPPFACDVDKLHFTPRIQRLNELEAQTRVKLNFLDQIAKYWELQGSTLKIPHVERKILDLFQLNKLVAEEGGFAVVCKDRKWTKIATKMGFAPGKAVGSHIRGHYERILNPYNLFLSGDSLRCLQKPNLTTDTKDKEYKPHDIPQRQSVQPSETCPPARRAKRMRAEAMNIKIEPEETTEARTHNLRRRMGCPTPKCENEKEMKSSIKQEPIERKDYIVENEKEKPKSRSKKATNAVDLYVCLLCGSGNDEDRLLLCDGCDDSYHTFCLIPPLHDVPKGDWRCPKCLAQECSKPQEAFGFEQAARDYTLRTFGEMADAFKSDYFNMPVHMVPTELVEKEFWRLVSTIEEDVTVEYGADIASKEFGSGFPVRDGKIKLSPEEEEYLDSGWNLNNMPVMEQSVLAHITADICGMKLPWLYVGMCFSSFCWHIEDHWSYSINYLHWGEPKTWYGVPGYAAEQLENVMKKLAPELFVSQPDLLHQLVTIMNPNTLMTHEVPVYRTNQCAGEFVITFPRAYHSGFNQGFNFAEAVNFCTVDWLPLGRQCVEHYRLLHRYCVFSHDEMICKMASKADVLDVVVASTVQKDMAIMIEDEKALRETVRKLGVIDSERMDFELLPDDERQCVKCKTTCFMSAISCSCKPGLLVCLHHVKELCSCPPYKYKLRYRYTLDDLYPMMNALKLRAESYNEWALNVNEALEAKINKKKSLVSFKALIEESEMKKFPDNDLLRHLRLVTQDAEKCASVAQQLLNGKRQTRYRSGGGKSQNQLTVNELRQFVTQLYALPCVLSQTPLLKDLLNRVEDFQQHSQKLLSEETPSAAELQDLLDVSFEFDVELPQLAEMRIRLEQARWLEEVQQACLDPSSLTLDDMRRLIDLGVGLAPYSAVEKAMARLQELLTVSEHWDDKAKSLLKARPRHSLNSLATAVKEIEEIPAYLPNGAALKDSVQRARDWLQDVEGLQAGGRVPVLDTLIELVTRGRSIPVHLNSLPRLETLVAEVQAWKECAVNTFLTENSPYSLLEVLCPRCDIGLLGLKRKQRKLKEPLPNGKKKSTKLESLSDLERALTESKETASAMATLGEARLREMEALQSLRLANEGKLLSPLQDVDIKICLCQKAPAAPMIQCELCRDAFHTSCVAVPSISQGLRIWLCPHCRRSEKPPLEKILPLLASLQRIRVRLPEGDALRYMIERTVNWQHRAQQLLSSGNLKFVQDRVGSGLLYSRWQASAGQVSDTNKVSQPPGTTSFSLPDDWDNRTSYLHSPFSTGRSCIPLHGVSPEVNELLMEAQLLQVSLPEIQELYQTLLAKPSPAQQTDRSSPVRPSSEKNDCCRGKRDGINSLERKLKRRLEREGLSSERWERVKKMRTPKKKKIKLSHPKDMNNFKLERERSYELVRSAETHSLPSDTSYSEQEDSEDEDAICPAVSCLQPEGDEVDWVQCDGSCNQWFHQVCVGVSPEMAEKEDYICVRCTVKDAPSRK
How it was run: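 Compound dilutions met 200 nM (final) KDM5BΔAP for 10 min at room temperature before substrate addition. The substrate mix held 12.5 µM H3K4me3 with cofactors 25 µM α-ketoglutarate and 50 µM Fe²⁺. NADH signal gain over 30 min defined activity.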
Note: nearly all actives have a fitted effect of over 70% in size.
Potency is the fitted concentration of half-maximal effect; tags give direction and shape of the fitted curve.
Throughout, for activity change, negative = inhibition: 0% is about no effect.

Row | SMILES | Potency | activity change, negative = inhibition
1 | O=C(Nc1ccc(F)c(F)c1)c1cc2n(n1)CC(c1ccc(Br)cc1)OC2 (configuration not stated) | inconclusive: 35.5 µM [inhibitor, partial curve, poor fit] | 
2 | COc1cccc(CN2CCOC[C@H](O)C2)c1 | inconclusive: 31.6 µM [inhibitor, partial curve] | 
3 | O=C(Cc1ccsc1)NCc1nnc2ccc(-c3ccc(Cl)cc3)nn12 | active: 25.1 µM | 
4 | Cc1ccc(Nc2nnc(-c3ccccc3N)o2)cc1C | inconclusive: 28.2 µM [inhibitor, partial curve, poor fit] | 
5 | COc1cc(CN2CCN(c3noc(C(C)C)n3)CC2CCO)cc(OC)c1 (configuration not stated) | inconclusive: 14.1 µM [inhibitor, partial curve] | 
6 | CC(C)Oc1cccc(C(=O)Nc2cc(Cl)cc(Cl)c2)c1 |  | inactive: -9.33%
7 | CCCN(CC1CC1)c1oc(-c2ccc(F)cc2)nc1C#N | inconclusive: 25.1 µM [inhibitor, partial curve, poor fit] | 
8 | O=C(O)C[C@@H]1CCN(S(=O)(=O)c2ccc(F)cc2)C[C@@H]1CC1=NCCc2cc(F)ccc21 | active: 20 µM | 
9 | O=C(CSc1ccc2ccccc2n1)NCCc1ccc(F)cc1 |  | inactive: -18.4%
10 | O=C(Cc1ccccc1)NCC1CN(Cc2ccc3[nH]ccc3c2)CC12CN(c1ccccc1)C2 (configuration not stated) | inconclusive: 28.2 µM [inhibitor, single point] | 
11 | COc1cc(-c2onc(C)c2C(=O)NCC2CCCO2)cc(OC)c1OC (configuration not stated) | active: 28.2 µM | 
12 | Cc1cc(C(=O)N2CC(F)(F)C[C@H]2c2nnc(C)o2)c(C)o1 | inconclusive: 12.6 µM [inhibitor, partial curve] | 
13 | Cc1ccc(-c2ccccc2)c(Oc2cccc(C#N)c2C#N)c1 | inconclusive: 39.8 µM [inhibitor, single point] | 
14 | COc1ccc(CC(=O)Nc2ccc3nc(Nc4ccc(OC)cc4)cc(C)c3c2)cc1 | inconclusive: 28.2 µM [inhibitor, partial curve, poor fit] | 
15 | Cc1ccc(-c2nc3nc(C)cc(N4CCN(c5cccc(C)c5C)CC4)n3n2)cc1 |  | inactive: -14.1%
16 | CN(C)c1ccc(CN(Cc2ccco2)C(=O)c2ccc(C(C)(C)C)cc2)cc1 | inconclusive: 17.8 µM [inhibitor, partial curve, poor fit] | 
17 | O=C(CCC[C@H]1NC[C@@H]2C[C@H]1CN(Cc1ccccc1)C2)NCCc1cccnc1 | inconclusive: 15.8 µM [inhibitor, partial curve, poor fit] | 
18 | O=C(O)COCC(=O)N1CC[C@H]2COC(=O)N2c2cc(F)ccc2C1 | inconclusive: 20 µM [inhibitor, partial curve] | 
19 | Cc1ccc(C(=O)N2CCC(C3CCN(S(C)(=O)=O)CC3)C2)c(=O)[nH]1 (configuration not stated) | inconclusive: 31.6 µM [inhibitor, partial curve, poor fit] | 
20 | O=C(CSc1nc2cc(C(=O)NC3CCCC3)ccc2c(=O)n1CC1CCCO1)c1cccc(Cl)c1 (configuration not stated) | inconclusive: 3.98 µM [inhibitor, full curve, poor fit] | 
21 | Cc1ccc2[nH]cc(C(C(=O)O)N3CCN(Cc4cccc(Cl)c4)CC3)c2c1 (configuration not stated) | inconclusive: 39.8 µM [inhibitor, single point] | 

Row | SMILES | Potency | activity change, negative = inhibition
22 | CNC(=O)CCn1ncc2cc(OCc3ccccc3-c3ccccc3C)ccc21 | inconclusive: 31.6 µM [inhibitor, single point] | 
23 | CC1=C(C(=O)OC(C)C)C(c2ccccc2Cl)N2C(CC(=O)N3CCOCC3)=CSC2=N1 (configuration not stated) |  | inactive: -27.7%
24 | CCOC(=O)c1ccc(N2C(=O)c3n[nH]c(-c4cccs4)c3C2c2ccc(OCC)cc2)cc1 (configuration not stated) | inconclusive: 7.08 µM [inhibitor, partial curve, poor fit] | 
25 | COc1ccc(CCNc2oc(/C=C/c3cc(OC)c(OC)c(OC)c3)nc2C#N)cc1OC | inconclusive: 3.98 µM [inhibitor, full curve, poor fit] | 
26 | Cc1ccc(Sc2c(C)nn(-c3ccccc3)c2OC(=O)C(C)(C)C)cc1 | inconclusive: 7.08 µM [inhibitor, partial curve, poor fit] | 
27 | CCCn1nc(C(=O)N(C)Cc2ccccc2N2CCCCC2)c2ccccc2c1=O |  | inactive: -11.6%
28 | COc1ccc(C(C(=O)O)N2CCc3sccc3C2)c(OC)n1 (configuration not stated) | inconclusive: 0.708 µM [inhibitor, full curve, poor fit] | 
29 | O=C(NCC1CCCO1)c1ccc2oc(-c3ccc(C(F)(F)F)cc3)nc2c1 (configuration not stated) | active: 25.1 µM | 
30 | CCN1C(=O)C(NC(=O)C(=O)NCCc2c[nH]c3ccc(Cl)cc23)c2ccccc21 (configuration not stated) |  | inactive: 3.9%
31 | COc1ccc(OC)c(NS(=O)(=O)c2cc3c(cc2Cl)N(C(C)=O)CCO3)c1 |  | inactive: -33.4%
32 | CCn1c(C(=O)NCc2ccc(F)cc2)cc2oc3ccccc3c21 | inconclusive: 35.5 µM [inhibitor, partial curve, poor fit] | 
33 | COc1cccc(/C=C(\C#N)c2ccccc2)c1OC(C)C | inconclusive: 25.1 µM [inhibitor, single point] | 
34 | CC(CCc1ccccc1)NC(=O)C1(c2ccccc2)CCCC1 (configuration not stated) | inconclusive: 39.8 µM [inhibitor, single point] | 
35 | COCCN1CC(CO)C2(CCN(C(=O)c3nccc4ccccc34)CC2)C1 (configuration not stated) | inconclusive: 12.6 µM [inhibitor, partial curve] | 
36 | O=[N+]([O-])c1ccccc1/C=N/NS(=O)(=O)c1ccccc1 |  | inactive: -24.5%
37 | O=C(NCc1ccc(Cl)c(Cl)c1)c1ccc2c(c1)OCO2 |  | inactive: -0.964%
38 | COC(=O)c1ccc(OC(=O)c2ccc3c(c2)NC(=O)CS3)cc1 |  | inactive: 16.2%
39 | COc1ccc(CCc2nc3nccc(-c4cccs4)n3n2)cc1OC | inconclusive: 28.2 µM [inhibitor, partial curve, poor fit] | 
40 | COc1cccc(CNC(=O)c2cc(C)nc3c2c(C)nn3-c2ccc(C)cc2)c1 | inconclusive: 35.5 µM [inhibitor, partial curve, poor fit] | 
41 | O=C(/C=C/c1ccco1)NCCC1=CCCCC1 | inconclusive: 39.8 µM [inhibitor, single point] | 
42 | Cc1[nH]c2ccccc2c1C(=O)COC(=O)Cc1c[nH]c2ccccc12 |  | inactive: -9.18%
